# Source: PMC4336329 (PLoS ONE, 2015)
# About 14,000 (4.5%) of roughly 310,000 compounds showed an effect of 50% or more. The effect is printed as a negative number. Some of the results follow.
# Biological target: human ether-à-go-go-related gene (hERG) potassium channel (human, UniProt Q12809)
# Assay: primary screen, population patch clamp on CHO cells stably expressing hERG
# 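Note: peak tail current of the secondary pulse compared with the same well before compound.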
# Chain of human ether-à-go-go-related gene (hERG) potassium channel (Q12809 whole entry, looked up): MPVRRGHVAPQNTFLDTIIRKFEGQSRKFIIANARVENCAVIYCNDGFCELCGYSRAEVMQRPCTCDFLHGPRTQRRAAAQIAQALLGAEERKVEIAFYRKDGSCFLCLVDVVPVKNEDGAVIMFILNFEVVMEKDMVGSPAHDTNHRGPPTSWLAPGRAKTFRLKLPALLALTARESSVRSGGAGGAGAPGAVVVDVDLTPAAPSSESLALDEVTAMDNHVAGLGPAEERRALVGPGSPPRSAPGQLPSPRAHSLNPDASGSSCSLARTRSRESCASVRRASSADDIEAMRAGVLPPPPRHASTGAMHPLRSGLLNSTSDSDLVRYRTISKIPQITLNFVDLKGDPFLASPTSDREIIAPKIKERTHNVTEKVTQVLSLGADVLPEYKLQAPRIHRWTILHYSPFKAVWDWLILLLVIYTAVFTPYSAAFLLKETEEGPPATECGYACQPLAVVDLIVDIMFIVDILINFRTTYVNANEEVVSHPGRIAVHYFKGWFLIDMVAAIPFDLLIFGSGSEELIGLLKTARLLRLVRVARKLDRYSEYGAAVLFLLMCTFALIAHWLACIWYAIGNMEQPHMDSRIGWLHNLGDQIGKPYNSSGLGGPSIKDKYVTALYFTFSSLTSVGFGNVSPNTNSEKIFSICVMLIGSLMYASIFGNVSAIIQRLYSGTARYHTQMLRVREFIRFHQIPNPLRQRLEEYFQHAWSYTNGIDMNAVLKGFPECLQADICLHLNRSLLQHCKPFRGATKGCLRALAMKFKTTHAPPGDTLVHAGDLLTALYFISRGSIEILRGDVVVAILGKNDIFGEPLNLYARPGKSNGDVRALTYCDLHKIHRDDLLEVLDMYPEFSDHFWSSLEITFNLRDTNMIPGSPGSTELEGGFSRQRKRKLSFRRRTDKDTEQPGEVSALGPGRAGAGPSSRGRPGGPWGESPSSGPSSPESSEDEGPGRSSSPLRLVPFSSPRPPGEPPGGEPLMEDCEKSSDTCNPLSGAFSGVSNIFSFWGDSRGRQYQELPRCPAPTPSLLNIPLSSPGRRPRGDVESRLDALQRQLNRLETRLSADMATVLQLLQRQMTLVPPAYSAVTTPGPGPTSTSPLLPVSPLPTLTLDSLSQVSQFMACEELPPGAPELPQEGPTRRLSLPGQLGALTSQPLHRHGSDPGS
row,SMILES,"hERG current change (%, negative = inhibition) at 10uM [%]"
1,O=C(CNC(=O)c1ccc(Br)cc1)N=Nc1c(O)[nH]c2ccc([N+](=O)[O-])cc12,9.35
2,Cn1c(CSCc2ccc(Cl)cc2Cl)n[nH]c1=S,7.37
3,COc1ccccc1Nc1cc(C(=O)N2CCc3ccccc3C2)c2ccccc2n1,-12.4
4,CCOC(=O)C1CCCN(Cc2cc(OC)c(O)c(OC)c2)C1 (stereo not drawn),-2.31
5,COc1ccc(S(=O)(=O)N(C)CC(=O)Nc2ccc(C(F)(F)F)cc2)cc1Cl,17.1
6,O=C(Nc1ccccc1N1CCOCC1)c1cc(Cl)c2c(c1)OCO2,19.7
7,CCOC(=O)c1ccccc1NC(=O)c1c(O)c2ccccc2n(CC)c1=O,11.6
8,CC(C)(C)c1ccc(-c2nnc(SCCC#N)n2C2CCCC2)cc1,3.79
9,CCC/C(=C1/C(=O)CC(C)(C)C(C(=O)OC)C1=O)N1CCCC1 (stereo not drawn),-7.75
10,Cc1ccc(OC(=O)CN2C(=O)c3ccccc3C2=O)cc1C,26.2
11,COc1cccc(OCC(=O)N2CCC3(CC2)CC(=O)c2ccccc2O3)c1,-55.8
12,S=C(NCCN1CCOCC1)Nc1ccc(-c2nc3ccccc3[nH]2)cc1,12.8
13,CC(C)OP(=O)(OC(C)C)C1(O)C(=O)Nc2ccc(Br)cc21 (stereo not drawn),-7.85
14,CCCCNC(=O)N1CCN(C(=O)c2ccco2)CC1,-13.9
15,O=C1c2ccccc2C(=O)N1CCCCN(C(=O)c1cc([N+](=O)[O-])cc([N+](=O)[O-])c1)c1ccc(Cl)cc1,5.87
16,Cc1ccc(/C(CSc2nccn2-c2ncc(C(F)(F)F)cc2Cl)=N\O)cc1,-0.514
17,CC(=O)Nc1ccc(C(=O)CCl)cc1,-11.1
18,C=C(C)C(=O)NNc1ccccc1,18.5
19,Cn1c(COc2ccccc2)nnc1SCCSc1nnc(COc2ccccc2)n1C,-48.9

row,SMILES,"hERG current change (%, negative = inhibition) at 10uM [%]"
1,CCOc1c2ccc(C(=O)NCCc3cccs3)cc2nn1CC,-9.69
2,COC(=O)c1nn2c(C(F)(F)F)cc(-c3ccc(Br)o3)nc2c1Br,2.67
3,O=S(=O)(c1cccc2c(S(=O)(=O)N3CCCC3)cccc12)N1CCCC1,3.88
4,O=C(C1CCC1)N1CCN(S(=O)(=O)c2ccc(Br)cc2Cl)CC1,-21.8
5,Cc1cccc(OP(=O)(NCc2ccccc2)Oc2cccc(C)c2)c1,-5.69
6,COc1cc(C(=O)Oc2c(OC)cc(C(=S)N3CCOCC3)cc2OC)cc(OC)c1OC,15.4
7,Cc1nc2cc(N3CCCCC3)c(NC(=O)c3ccncc3)cc2c(=O)n1Cc1ccc(Cl)cc1,21.9
8,Cc1ccc(-c2nsc3c(N4CCC(C(N)=O)CC4)ncnc23)cc1,2.23
9,Cc1ccc(S(=O)(=O)N2CCN(C(=O)CCn3nc(C)c(C)c3C)CC2)cc1,11.1
10,CC(Cc1ccco1)NC(=O)c1cccc(S(=O)(=O)N(C)C)c1 (stereo not drawn),5.58
11,Cc1cccc2cc3c(NC(=O)c4ccccn4)nn(C)c3nc12,4.21
12,Cn1c(=O)c2c(nc(SCCCO)n2Cc2ccccc2Cl)n(C)c1=O,-29.2
13,COc1ccc(C2Nc3ccccc3C(=O)N2NS(=O)(=O)c2ccc(C)cc2)cc1OC (stereo not drawn),4.14
14,CCOc1ccccc1OCC(=O)Nc1ccccc1C(=O)NC1CC1,3.61
15,FC(F)(F)c1nnc(-c2ccccc2)nc1Oc1ccc(Cl)cc1Cl,19.1
16,CCN1CCN(S(=O)(=O)c2ccc(S(=O)(=O)NCC3CCCO3)cc2)CC1 (stereo not drawn),11.5
17,COc1ccc(/C=N/N2CCOCC2)cc1OCc1ccccc1,14.1
18,Cc1cc(NC(=O)c2ccccc2-c2ccccc2C(=O)O)no1,4.5
19,O=C(O)Cn1c(=O)c2cccn2c2ccccc21,12.4

row,SMILES,"hERG current change (%, negative = inhibition) at 10uM [%]"
1,COCCNc1nnc(Cc2ccccc2)c(=O)[nH]1,29
2,O=C(CSc1ccc2ccccc2c1)Nc1ccncc1,0.863
3,COc1ccccc1NS(=O)(=O)c1ccc(C(=O)N2CCCC(C(F)(F)F)C2)cc1 (stereo not drawn),-19.2
4,CCOc1cc(C2NC(=O)NC(C)=C2C(=O)NCc2ccccc2)c(Cl)cc1O (stereo not drawn),-4.98
5,Cn1c(=O)c2nc(NCc3ccccc3)cnc2n(C)c1=O,-1.44
6,CCC(C)N1CCCCC1C(=O)Nc1c(C)cc(C)cc1C.Cl (stereo not drawn),-12.7
7,CCCNC(=O)C(Cc1ccc(Cl)cc1)NC(=O)c1ccc(-c2ccccc2)cc1 (stereo not drawn),10.9
8,O=C1C(=O)N(CNc2ccccn2)c2ccccc21,15.1
9,Cc1ccc(NC(=O)CCSc2nnc(C)o2)cc1,2.48
10,Cc1cc(C)cc(NC(=O)C2CCN(C(=O)[C@@H]3Cc4ccccc4CN3)CC2)c1,-67.7
11,CCCC(=O)Nc1cc(-c2nc3ncccc3o2)ccc1C,10.1
12,C#CCNC(=O)C1=C[C@@H](c2ccc(C(F)(F)F)cc2)C[C@@H](OCCCCO)O1,-53.8
13,COc1ccc(CC(=O)Nc2ccc(N3CCOCC3)cc2)cc1OC,15.4
14,Nn1c(SCc2cn3ccccc3n2)nnc1-c1ccncc1,12
15,Cc1cc2oc(C(=O)Nc3ccc(S(N)(=O)=O)cc3)c(C)c2cc1Cl,5.54
16,CCC1CCC2(CC1)SCC(=O)N2c1ccccc1 (stereo not drawn),5.31
17,CCCC(=O)Nc1ccc(Cl)c(NC(=O)c2cccnc2Cl)c1,24.3
18,CN(C)CCNS(=O)(=O)c1ccc(Cl)cc1,11
19,COc1cc(C(=O)N2CCN(Cc3ccc4c(c3)OCO4)CC2)c([N+](=O)[O-])cc1OC,-10.4
